The record followed here is patent EP4737480A1 (Japan Science and Technology Agency, dated 2026).

In this test the target is recombinant HER2 molecule (UniProt P04626 in part). Briefly: BLI (Octet N1), HER2 on streptavidin biosensor.

B1: scFv trastuzumab light chain P95ΔP96Δ (scFv)
scFv: MDIQMTQSPSSLSASVGDRVTITCRASQDVNTAVAWYQQKPGKAPKLLIYSASFLYSGVPSRFSGSRSGTDFTLTISSLQPEDFATYYCQQHYTTTFGQGTKVEIKRGSGGGGSGGGGSGGGGSKL[about 120 residues omitted]ASTKGPSVFPLAPSSLE
notes: also called Tmb-scFvPPΔ; Tmb-ScFv-PPΔ
A word on the Kd: it is the constant that tells how readily two partners part at equilibrium. The koff is the first-order rate constant of dissociation. Broadly, the kon is the rate constant with which the complex forms. Consider B1, for which the Kd amounted to 0.93 nM, the koff was 0.000155 s⁻¹ and the kon was found to be 167000 M⁻¹ s⁻¹.
